# Measured values reported in article PMC4336329 (PLoS ONE, 2015).
# Among all 310,000 compounds or so, about 14,000 (4.5%) showed an effect of 50% or more. Effects have a minus sign here. The list shows a part of the results.
# Molecular target: human ether-à-go-go-related gene (hERG) potassium channel (human, UniProt Q12809)
# Experiment: primary screen, population patch clamp on CHO cells stably expressing hERG
# 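Also: peak tail current of the secondary pulse compared with the same well before compound.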
# Chain of human ether-à-go-go-related gene (hERG) potassium channel (Q12809 whole entry, looked up): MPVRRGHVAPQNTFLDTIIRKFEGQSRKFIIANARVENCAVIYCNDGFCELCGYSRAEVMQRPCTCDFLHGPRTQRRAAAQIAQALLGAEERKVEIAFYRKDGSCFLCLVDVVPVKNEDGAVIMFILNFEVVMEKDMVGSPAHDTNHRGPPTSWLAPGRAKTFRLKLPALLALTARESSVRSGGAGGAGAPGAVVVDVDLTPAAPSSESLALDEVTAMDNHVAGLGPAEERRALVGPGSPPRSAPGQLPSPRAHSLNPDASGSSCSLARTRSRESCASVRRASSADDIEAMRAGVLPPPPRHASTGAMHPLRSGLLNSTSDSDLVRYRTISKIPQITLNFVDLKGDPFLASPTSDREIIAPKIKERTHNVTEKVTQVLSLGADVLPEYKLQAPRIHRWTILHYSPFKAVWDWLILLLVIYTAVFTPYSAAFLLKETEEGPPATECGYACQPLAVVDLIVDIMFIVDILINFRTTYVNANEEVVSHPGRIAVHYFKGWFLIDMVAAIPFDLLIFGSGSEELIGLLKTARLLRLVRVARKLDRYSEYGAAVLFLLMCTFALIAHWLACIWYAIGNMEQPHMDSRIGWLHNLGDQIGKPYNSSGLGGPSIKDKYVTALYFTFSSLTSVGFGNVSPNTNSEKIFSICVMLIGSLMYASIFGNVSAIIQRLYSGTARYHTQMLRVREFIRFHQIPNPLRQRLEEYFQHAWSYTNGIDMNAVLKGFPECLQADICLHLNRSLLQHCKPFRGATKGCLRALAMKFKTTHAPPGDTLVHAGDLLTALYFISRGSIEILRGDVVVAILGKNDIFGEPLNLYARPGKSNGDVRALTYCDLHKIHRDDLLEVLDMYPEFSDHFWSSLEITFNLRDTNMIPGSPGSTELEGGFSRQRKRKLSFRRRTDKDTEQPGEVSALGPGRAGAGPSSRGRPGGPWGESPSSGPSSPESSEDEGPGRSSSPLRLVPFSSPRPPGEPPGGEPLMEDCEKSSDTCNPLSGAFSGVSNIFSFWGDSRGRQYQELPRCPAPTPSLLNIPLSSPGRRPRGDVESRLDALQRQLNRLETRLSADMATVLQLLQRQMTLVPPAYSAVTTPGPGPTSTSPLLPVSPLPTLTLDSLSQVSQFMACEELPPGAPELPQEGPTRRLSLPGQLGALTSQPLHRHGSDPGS
row,SMILES,"hERG current change (%, negative = inhibition) at 10uM"
1,COC(=O)[C@@H](NC(=O)NCc1cccs1)C(C)C,-1.33%
2,Cc1nn(-c2ccccc2)c(C)c1C(=O)OCC(=O)NCc1ccco1,-3.98%
3,CCCC(=O)NC(=S)Nc1c(C)cc(Br)cc1C,-8.92%
4,CCCCC1NC(=S)N(C2CCCCC2)C1=O (stereo not shown),-8.35%
5,CCOC(=O)C1(Cc2ccccc2C)CCCN(C(=O)c2ccc(COC)o2)C1 (stereo not shown),-7.74%
6,O=C(COC(=O)c1cncc(Br)c1)NCc1ccccc1,5.94%
7,COc1ccc(CNc2nc3ccc(C)cc3s2)c(OC)c1OC,-33.9%
8,Cc1ccc(C)c(CN2C(=O)CSc3ccc(C(=O)N4CCCC4)cc32)c1,-17%
9,CCCCn1c(NS(=O)(=O)c2ccccc2)c(S(=O)(=O)c2ccc(C)cc2)c2nc3ccccc3nc21,-0.162%
10,O=c1c2cc(N3CCOCC3)ccc2[nH]c(=S)n1Cc1ccco1,-25.1%
11,O=C(OCc1ccccc1F)c1ccc2c(c1)-c1ccccc1C2=O,16.4%
12,Cc1c(CNC(=O)C2CC2)c(-n2cccc2)n(Cc2ccccc2)c1C,27.1%
13,COc1cc(-c2nc3n(n2)C(c2cccc(OC)c2OC)C2=C(CCCC2=O)N3)cc(OC)c1OC (stereo not shown),-16.1%
14,COc1ccc2nc(SCC(=O)N(C)CC(=O)Nc3ccc(F)cc3)[nH]c2c1,-15.2%
15,Clc1ccccc1/C=C/C=N/Nc1nc(N2CCOCC2)nc(N2CCOCC2)n1,-58.4%
16,CCCn1nc(NS(C)(=O)=O)c2cc3cccc(C)c3nc21,6.04%
17,Cl.NC(=NC1CCCCC1)c1ccc([N+](=O)[O-])cc1,-57.2%
18,c1ccc(-c2nccc(-c3ccc(-n4cnc5ccccc54)cc3)n2)nc1,-46.6%
19,Cc1cc(C(F)F)n2nc(C(=O)Nc3cccc(S(=O)(=O)N4CCOCC4)c3)nc2n1,-8.28%
20,O=C(NCC(=O)N(c1cccnc1)C(C(=O)NC1CCCC1)c1ccccc1F)c1ccco1 (stereo not shown),-0.301%
21,COc1cc(CCC(=O)OCC(=O)Nc2ccccc2F)cc(OC)c1OC,23.1%
22,COc1ccc(S(=O)(=O)N2CCCCC2)cc1NC(=O)Cc1sc(C)nc1-c1ccc(F)cc1,-3.53%

row,SMILES,"hERG current change (%, negative = inhibition) at 10uM"
1,N#CCCn1c(SCC(=O)NCCc2ccc(F)cc2)nc2ccccc21,-27.7%
2,CC(Cc1ccccc1)NC(=O)CC(c1ccccc1)c1ccccc1O (stereo not shown),4.42%
3,CN(C)S(=O)(=O)n1cc(/C=C(\NC(=O)c2ccccc2)C(=O)NCCCN2CCOCC2)c2ccccc21,10%
4,CC1CCN(C(=O)C2CCCN(S(=O)(=O)c3cccc4nsnc34)C2)CC1 (stereo not shown),-27.8%
5,CCOC(=O)[C@@H]1[C@H]2COc3ccc(Br)cc3[C@@H]2N2C(=O)N(c3cccc(Cl)c3)C(=O)[C@]12C,18.5%
6,O=C(C1CCN(S(=O)(=O)c2ccc(F)cc2)CC1)N1CC=C(c2ccccc2)CC1,-27%
7,O=C(COC(=O)CNC(=O)c1ccc(Cl)cc1)NC1CCCCCC1,11.9%
8,CCN(Cc1ccncc1)C(=O)c1ccc(Br)o1,1.66%
9,Cc1ccc(C)c2[nH]c(=O)c(CN(CC3CCCO3)S(=O)(=O)c3ccc4c(c3)OCCO4)cc12 (stereo not shown),0.665%
10,CC1CCCCC1NC(=O)CO/N=C/c1ccccc1OC(F)F (stereo not shown),-35.8%
11,COc1ccc(CNC(=O)CSc2nnc(C)c(=O)[nH]2)cc1,18.2%
12,Cc1cc(C(=O)Nc2ccccc2C(=O)O)ccc1NC(=O)COc1ccccc1Cl,1.08%
13,O=C(COC(=O)c1ccccn1)Nc1nc(-c2ccccc2)cs1,22.7%
14,CCOc1ccc(C(=O)NCC(c2ccco2)N2CCc3ccccc3C2)cc1 (stereo not shown),-40.7%
15,O=C(Nn1c(-c2ccccc2)nc2ccccc2c1=O)c1ccc([N+](=O)[O-])cc1,-15.4%
16,Cc1ccc(SCC(=O)OC(C)C(=O)NC2(C#N)CCCCC2)cc1 (stereo not shown),-2.78%
17,COc1ccc(CN2CCNC(=O)C2CC(=O)NCc2cnn(C)c2)cc1OC (stereo not shown),7.27%
18,CCCOC(=O)c1cc(NC(=O)/C=C/c2ccccc2)ccc1O,9.86%
19,Cc1ccc(-c2cnc(-c3ccncc3)o2)cc1,-39.3%
20,COc1cc(/C=N\NC(=O)c2ccc(C)nc2)ccc1OC(=O)c1ccc2c(c1)OCO2,-7.08%
21,CC(=O)Nc1ccc(NC(=O)C(C)OC(=O)CC2CCCCC2)cc1 (stereo not shown),6.52%
